Inconclusive results and toxic doses are left out. Certain results were filed several times, with different values. The list is limited to them. The source may hold further records. Values given together are repeats across runs, samples, wells, individuals or studies. Brackets tell where a record comes from. The letters are not those of the source and start again with each entry. Counts like (3×) say how often a value occurs here. Starred links: 1 amine or outer side, 2 acyl side, 3 side chain; linkers in the order of their positions; H or OH if unused. Positions of bridges follow the written chain, without caps; N, C: chain ends. Non-standard residues stand in square brackets, D forms with d. Residues, ends and D or L forms follow the SMILES beside them. Chains are numbered I, II in the order given. Actinocin(9to1) = Cc1c2oc3c(C)ccc(C(=O)[*:1])c3nc-2c(C(=O)[*:2])c(N)c1=O; NMeV = CN[CH](C(=O)O)C(C)C; Aze = O=C(O)[CH]1CCN1; Sar = CNCC(=O)O
Test system: BDF1 mice, P388 leukemia ip, median survival T/C
Assay: NCI In Vivo Anticancer Drug Screen. Data for tumor model P388 Leukemia (intraperitoneal) in B6D2F1 (BDF1) mice
Conditions: endpoint: median survival time, higher = longer survival
Procedure: The antitumor activity of compounds was measured in mice bearing transplantable tumors. Survival or tumor size were measured and the results are expressed as the measurement made in the treated group (T) divided by the measurement made in the vehicle treated control group (C). The tumor model used in this assay is P388 Leukemia (intraperitoneal) in B6D2F1 (BDF1) mice

[1] = dose: 200.0 mg/kg/injection, schedule: Q01DX009 (ip), vehicle: Klucel (hydroxypropylcellulose) (HPC)
[2] = dose: 50.0 mg/kg/injection, schedule: Q04DX003 (ip), vehicle: saline

## CCC[As](=O)(O)CCC
dose: 50.0 mg/kg/injection, schedule: Q01DX009 (ip), vehicle: saline
  T/C: 110 % of control and 150 % of control

## CC(C)(CBr)C(=O)N1CCN(C(=O)C(C)(C)CBr)CC1
dose: 67.0 mg/kg/injection, schedule: Q04DX003 (ip), vehicle: Klucel (hydroxypropylcellulose) (HPC)
  T/C: 110 % of control, 186 % of control, 190 % of control

## Oc1cccc2c1[O][Sb][O]2
dose: 12.5 mg/kg/injection, schedule: Q01DX009 (ip), vehicle: saline with Tween-80
  T/C: 112 % of control and 163 % of control

## COC(=O)[C@@H](O)[C@](O)(CCC(C)C)C(=O)O[C@@H]1C(OC)=C[C@]23CCCN2CCc2cc4c(cc2[C@H]13)OCO4
dose: 1.0 mg/kg/injection, schedule: Q03HX016 (ip), vehicle: saline
  T/C: 110 % of control and 177 % of control
dose: 2.0 mg/kg/injection, schedule: Q03HX008 (ip), vehicle: saline
  T/C: 120 % of control and 161 % of control
dose: 4.0 mg/kg/injection, schedule: Q01DX006 (iv), vehicle: saline
  T/C: 110 % of control and 155 % of control
dose: 4.0 mg/kg/injection, schedule: Q01DX009 (oral), vehicle: saline
  T/C: 120 % of control and 155 % of control
dose: 8.0 mg/kg/injection, schedule: Q04DX003 (ip), vehicle: saline
  T/C: 120 % of control and 150 % of control
dose: 8.0 mg/kg/injection, schedule: Q08DX002 (ip), vehicle: saline
  T/C: 100 % of control and 150 % of control
dose: 16.0 mg/kg/injection, schedule: Q08DX002 (ip), vehicle: saline
  T/C: 110 % of control and 155 % of control

## Cc1noc(-c2ccc([N+](=O)[O-])o2)n1
[1]
  T/C: 110 % of control and 189 % of control

## CCN(CC)C(=O)c1ccc(C(Cl)(Cl)Cl)cc1
dose: 25.0 mg/kg/injection, schedule: Q01DX009 (ip), vehicle: saline with Tween-80
  T/C: 106 % of control and 160 % of control

## Cn1cnc([N+](=O)[O-])c1Sc1nc(N)nc2c1ncn2C1CC(O)C(CO)O1 (stereo not given)
dose: 100.0 mg/kg/injection, schedule: Q04DX003 (ip), vehicle: saline
  T/C: 109 % of control [sample A] and 154 % of control [sample B]

## CC(C)C1NC(=O)C(N)C(C)OC(=O)C(C(C)C)N(C)C(=O)CN(C)C(=O)C2CCCN2C1=O (stereo not given) (tested in a mixture with another compound) (H-TVP[Sar][NMeV]; ester 1-C; configuration not given here)
dose: 0.15 mg/kg/injection, schedule: Q04DX003 (ip), vehicle: saline + alcohol
  T/C: 119 % of control and 195 % of control

## COC(=O)c1[nH]c(=O)[nH]c(=O)c1F
dose: 50.0 mg/kg/injection, schedule: Q04DX003 (ip), vehicle: saline with Tween-80
  T/C: 122 % of control and 190 % of control

## CN(C)CC(Cl)CCl (stereo not given)
dose: 100.0 mg/kg/injection, schedule: Q01DX009 (ip), vehicle: saline
  T/C: 111 % of control, 118 % of control, 154 % of control

## CCc1ccc2c(c1)N(CCCN(CCCl)CCCl)c1ccccc1S2
dose: 25.0 mg/kg/injection, schedule: Q04DX003 (ip), vehicle: saline with Tween-80
  T/C: 101 % of control, 103 % of control, 150 % of control

## ClCCN(CCCl)CCNc1ccnc2cc(Cl)ccc12
dose: 1.0 mg/kg/injection, schedule: Q01DX009 (ip), vehicle: saline
  T/C: 122 % of control and 195 % of control

## OCCN1CCN(CCCN2c3ccccc3Sc3ccc(C(F)(F)F)cc32)CC1
[2]
  T/C: 120 % of control and 166 % of control

## COC(=O)[C@@]12OC[C@]34[C@H]([C@@H](O)[C@@H]1O)[C@@]1(C)CC(=O)C(O)=C(C)[C@@H]1C[C@H]3OC(=O)[C@H](OC(=O)c1ccccc1)[C@@H]24
dose: 2000.0 micrograms/kg/injection, schedule: Q01DX009 (ip), vehicle: saline + alcohol
  T/C: 105 % of control, 109 % of control, 150 % of control

## O=NN(CCCl)C(=O)Nc1ccc(NC(=O)N(CCCl)N=O)cc1
[1]
  T/C: 118 % of control and 155 % of control

## COC(=O)[C@@H]1c2cc3c(c(O)c2[C@@H](OC2OC(C)C(OC)C(C)(OC)C2OC)C[C@]1(C)O)C(=O)c1c(O)cc2c(c1C3=O)O[C@H]1O[C@]2(C)[C@H](O)[C@@H](N(C)C)[C@@H]1O (stereo not given in full)
dose: 0.5 mg/kg/injection, schedule: Q01DX010 (ip), vehicle: saline
  T/C: 109 % of control and 155 % of control

## CCN1CC=CCC1
[2]
  T/C: 95 % of control, 109 % of control, 150 % of control

## BrCCN(CCBr)c1ccc2c3c(cccc13)-c1ccccc1-2
dose: 4.12 mg/kg/injection, schedule: Q01DX009 (ip), vehicle: Klucel (hydroxypropylcellulose) (HPC)
  T/C: 95 % of control and 165 % of control
dose: 6.25 mg/kg/injection, schedule: Q01DX009 (ip), vehicle: Klucel (hydroxypropylcellulose) (HPC)
  T/C: 91 % of control, 183 % of control, 191 % of control
dose: 9.37 mg/kg/injection, schedule: Q01DX009 (ip), vehicle: Klucel (hydroxypropylcellulose) (HPC)
  T/C: 120 % of control and 178 % of control

## O=C(Nc1ccc(C2=NCCCN2)cc1)c1ccc(C(=O)Nc2ccc(C3=NCCCN3)cc2)nc1
dose: 2.0 mg/kg/injection, schedule: Q01DX009 (ip), vehicle: saline
  T/C: 115 % of control and 150 % of control
dose: 6.6 mg/kg/injection, schedule: Q01DX009 (ip), vehicle: saline with Tween-80
  T/C: 109 % of control and 150 % of control

## Cc1c2oc3c(C)ccc(C(=O)NC4C(=O)NC(C(C)C)C(=O)N5CCC5C(=O)N(C)CC(=O)N(C)C(C(C)C)C(=O)OC4C)c3nc-2c(C(=O)NC2C(=O)NC(C(C)C)C(=O)N3CCC3C(=O)N(C)CC(=O)N(C)C(C(C)C)C(=O)OC2C)c(N)c1=O (stereo not given) (I: TV[Aze][Sar][NMeV] / II: TV[Aze][Sar][NMeV]; ester I:1-I:C, II:1-II:C; linker I:N-II:N via Actinocin(9to1); configuration not given here)
dose: 75.0 micrograms/kg/injection, schedule: Q04DX003 (ip), vehicle: saline + alcohol
  T/C: 120 % of control and 190 % of control

## c1ccc2c(c1)C1=NCCN1c1ccccc1-2
dose: 26.6 mg/kg/injection, schedule: Q01DX009 (ip), vehicle: Klucel (hydroxypropylcellulose) (HPC)
  T/C: 104 % of control and 155 % of control

## O=P(N1CCCCCC1)(N1CC1)N1CC1
dose: 12.5 mg/kg/injection, schedule: Q04DX003 (ip), vehicle: saline
  T/C: 100 % of control [sample A] and 158 % of control [sample B]
dose: 37.0 mg/kg/injection, schedule: Q04DX003 (ip), vehicle: saline
  T/C: 95 % of control and 300 % of control

## O=C1NC(c2cccc3ccccc23)Nc2ccccc21 (stereo not given)
dose: 64.0 mg/kg/injection, schedule: Q01DX009 (ip), vehicle: Klucel (hydroxypropylcellulose) (HPC)
  T/C: 100 % of control and 186 % of control

## COCCOC1=C(N2CC2)C(=O)C(OCCOC)=C(N2CC2)C1=O
dose: 0.5 mg/kg/injection, schedule: Q01DX009 (ip), vehicle: saline
  T/C: 104 % of control and 150 % of control

## COc1cc(C=Nc2cc(Cl)c(Cl)c(Cl)c2)ccc1N(CCCl)CCCl
dose: 66.0 mg/kg/injection, schedule: Q04DX003 (ip), vehicle: Klucel (hydroxypropylcellulose) (HPC)
  T/C: 109 % of control and 175 % of control
dose: 100.0 mg/kg/injection, schedule: Q04DX003 (ip), vehicle: Klucel (hydroxypropylcellulose) (HPC)
  T/C: 100 % of control (2×) and 159 % of control

## CC(=O)OC1CCC2(C)C3CCC4(C)C(=CCC5(C(=O)O)CCC(C)(C)CC45)C3(C)CCC2C1(C)C (stereo not given)
dose: 1.0 mg/kg/injection, schedule: Q01DX009 (ip), vehicle: alcohol
  T/C: 119 % of control and 158 % of control

## O=NN(CCCl)C(=O)Nc1c[nH]c(=O)[nH]c1=O
dose: 0.39 mg/kg/injection, schedule: Q04DX003 (ip), vehicle: saline with Tween-80
  T/C: 119 % of control and 150 % of control

## Cc1cc(C)n(CO)n1
dose: 100.0 mg/kg/injection, schedule: Q01DX009 (ip), vehicle: Klucel (hydroxypropylcellulose) (HPC)
  T/C: 115 % of control and 155 % of control

## c1cc(NC2CCCCC2)ccc1CN1CCOCC1
dose: 200.0 mg/kg/injection, schedule: Q01DX009 (ip), vehicle: other
  T/C: 114 % of control and 157 % of control

Reference: PubChem BioAssay AID328 (DTP/NCI, 2004)
